Measurements from publication PMC4336329 (PLoS ONE, 2015).
In all, about 310,000 compounds went through this assay and about 14,000 (4.5%) showed an effect of 50% or more. The effect is printed as a negative number. Some of the results follow.

These compounds were tested against human ether-à-go-go-related gene (hERG) potassium channel (human, UniProt Q12809) (assay: primary screen, population patch clamp on CHO cells stably expressing hERG).
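Note: peak tail current of the secondary pulse compared with the same well before compound.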

Sequence of human ether-à-go-go-related gene (hERG) potassium channel (Q12809 whole entry, looked up): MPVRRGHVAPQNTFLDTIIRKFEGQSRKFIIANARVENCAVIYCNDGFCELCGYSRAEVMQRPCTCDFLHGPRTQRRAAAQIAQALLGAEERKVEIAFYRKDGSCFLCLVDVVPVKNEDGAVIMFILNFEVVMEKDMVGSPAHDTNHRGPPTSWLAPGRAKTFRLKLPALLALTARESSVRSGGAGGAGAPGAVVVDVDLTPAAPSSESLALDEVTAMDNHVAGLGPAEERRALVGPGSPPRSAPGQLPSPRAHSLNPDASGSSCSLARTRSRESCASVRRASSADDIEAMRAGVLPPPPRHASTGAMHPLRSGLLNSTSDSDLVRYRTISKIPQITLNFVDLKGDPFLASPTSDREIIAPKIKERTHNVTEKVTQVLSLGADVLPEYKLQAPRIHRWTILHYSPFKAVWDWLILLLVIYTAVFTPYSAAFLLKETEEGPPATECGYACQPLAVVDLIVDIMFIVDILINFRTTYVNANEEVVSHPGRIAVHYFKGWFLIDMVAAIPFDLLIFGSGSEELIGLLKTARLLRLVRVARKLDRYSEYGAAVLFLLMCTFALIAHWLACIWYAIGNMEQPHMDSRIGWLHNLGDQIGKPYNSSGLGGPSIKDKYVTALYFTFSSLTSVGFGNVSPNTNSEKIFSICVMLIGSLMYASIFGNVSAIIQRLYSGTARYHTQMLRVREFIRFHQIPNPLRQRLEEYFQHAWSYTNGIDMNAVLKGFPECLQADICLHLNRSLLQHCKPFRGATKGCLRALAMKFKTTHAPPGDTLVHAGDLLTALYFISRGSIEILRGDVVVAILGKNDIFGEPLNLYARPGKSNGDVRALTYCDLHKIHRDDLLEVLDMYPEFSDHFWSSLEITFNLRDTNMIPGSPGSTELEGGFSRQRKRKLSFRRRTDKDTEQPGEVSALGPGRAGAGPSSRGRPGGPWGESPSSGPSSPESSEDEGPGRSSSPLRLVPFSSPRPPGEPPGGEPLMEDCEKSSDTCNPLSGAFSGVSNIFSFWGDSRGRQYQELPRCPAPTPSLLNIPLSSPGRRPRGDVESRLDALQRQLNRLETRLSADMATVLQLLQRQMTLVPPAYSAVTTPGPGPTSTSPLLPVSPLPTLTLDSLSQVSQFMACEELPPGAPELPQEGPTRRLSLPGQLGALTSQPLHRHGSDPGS

SMILES	hERG current change (%, negative = inhibition) at 10uM
O=C(N/N=C/c1ccc2c(c1)OCO2)c1cc(-c2ccccc2Cl)nc2ccccc12	19.9%
Cc1nc2cc(-c3ccc(Cl)cc3)nn2c(C)c1CCC(=O)NC(C)c1ccc2c(c1)OCCO2 (stereo not drawn)	-23.8%
COc1ccc(/C=C2/SC(=S)N(CCCC(=O)N3CCN(C)CC3)C2=O)cc1	2.98%
Cc1ccc(C)c(N2CCN(S(=O)(=O)c3ccc4c(c3)CCN4C(=O)CCC(=O)O)CC2)c1	13.9%
CCN(C(=O)Cn1cnc2c(nc3n2CCCCC3)c1=O)c1cccc(Cl)c1	-25.4%
O=S(=O)(N/N=C/c1ccc2c(c1)OCCO2)c1ccccc1	-8.67%
Cc1cc(C)cc(OCC(=O)Nc2cccc(-c3nnc(-c4ccco4)o3)c2)c1	-12.8%
CCS(=O)(=O)Nc1ccc(C2=NN(S(=O)(=O)c3ccc(F)cc3)C(c3ccco3)C2)cc1 (stereo not drawn)	-38.8%
CCOc1ccc(NC(=O)C2CC(=O)N(CCc3ccc(OC)c(OC)c3)C2)cc1OCC (stereo not drawn)	11.7%
O=C(O)/C=C/C(=O)Nc1ccccc1-c1ccccc1NC(=O)/C=C/C(=O)O	17.9%
O=C(CCc1ccccc1)Nc1ccc2ccccc2n1	14%
Cc1ccc(OCC(=O)N(C)CC(=O)Nc2cccc(F)c2)cc1	5.19%
Cc1ccc(C(=O)Nc2ccc(C(=O)O)cc2NC(=O)c2ccc(C)cc2)cc1	13.3%
Cc1ccc(Cn2nnc(C(=O)Nc3cc(C)ccc3C)c2N)cc1	1.95%
CCC(C)Nc1nc2c(c(=O)[nH]c(=O)n2C)n1CCCc1ccccc1 (stereo not drawn)	-2.93%
C=CCn1c(O)c(N=NC(=O)OCC)c2ccccc21	-13.6%
Cc1ccccc1C(=O)Nc1ccc2c(c1)nc(CCNC(=O)c1ccco1)n2C	-18%
Cc1cc(CN(C)C(=O)c2ccc(OC3CCN(S(=O)(=O)N(C)C)CC3)cc2)n[nH]1	19.3%
O=C(NNc1nc2ccccc2s1)Nc1ccc(Cl)c(Cl)c1	32.6%
Cc1ccc(C(=O)NC(C)C2CC3CCC2C3)c(C)c1 (stereo not drawn)	-13.2%
O=C(COc1ccccc1)NC(NC(=S)Nc1ccccc1C(=O)O)C(Cl)(Cl)Cl (stereo not drawn)	18.7%

SMILES	hERG current change (%, negative = inhibition) at 10uM
CCOc1ccc(NC(=O)CCc2nnc3ccc(N4CCN(C)CC4)nn23)cc1	17.3%
COC(=O)COc1ccc(S(=O)(=O)N2CCOCC2)cc1C	-1.37%
CCn1c2ccccc2c2cc(/C=N/NC(=O)c3ccc(O)cc3)ccc21	-5.44%
Cc1ccccc1C(=O)NC(CC(C)C)C(=O)NN1C(=O)c2ccccc2C1=O (stereo not drawn)	25.9%
CC1(c2ccc([N+](=O)[O-])cc2)NC(=O)N(CC(=O)c2ccc3c(c2)OCO3)C1=O (stereo not drawn)	-1.19%
COc1ccc(N(C(=O)c2snc(C(N)=O)c2N)C(C(=O)NC2CCCCC2)c2ccc(F)cc2)c(OC)c1 (stereo not drawn)	6.24%
Cn1c(=O)oc2cc(S(=O)(=O)NCc3ccc(F)cc3)ccc21	-35.2%
CCNC(=O)CC1C(=O)N(c2ccc(OC)cc2)C(=O)N1CCOC (stereo not drawn)	16.8%
CC(=NCc1cccnc1)c1c(O)n(-c2ccc(C)cc2)c(=O)[nH]c1=O	-8.92%
O=C(COC(=O)[C@H](Cc1ccccc1)NC(=O)c1cccs1)Nc1ccccc1C(F)(F)F	4.47%
O=C(NN=C1CCN(Cc2ccccc2)CC1)C(O)c1ccccc1 (stereo not drawn)	7.39%
Cc1ccc(CNC(=O)CN2CCCC(C)C2)cc1 (stereo not drawn)	-29.7%
Cn1c(SCc2nc(-c3ccccc3)no2)nnc1-c1cccs1	-2.11%
CCCCOP(=O)(OCCCC)C(O)c1ccc(F)cc1 (stereo not drawn)	-5.14%
Cc1ccc2occ(C(c3nnnn3C3CCCC3)N3CCN(C(=O)c4ccco4)CC3)c(=O)c2c1 (stereo not drawn)	-45.7%
COc1ccc(CCN2C(=O)C3C4CC(C5C(C(=O)N/N=C\c6ccc(Cl)cc6)=NOC45)C3C2=O)cc1OC (stereo not drawn)	-67.7%
O=C(NCC1CCN(c2ccc(S(=O)(=O)N3CCOCC3)cc2)CC1)c1cccc(Cl)c1	-12.4%
COc1ccc(-c2nc(CS(=O)CC(=O)NC3CCCc4ccccc43)c(C)o2)cc1OC (stereo not drawn)	-15.2%
CC(C)OC(=O)c1cn(-c2ccccc2)nc1-c1ccco1	3.82%
Cc1cc2oc(C(=O)N(Cc3ccccc3)C3CCS(=O)(=O)C3)c(C)c2cc1C (stereo not drawn)	11.4%
COCC1CCCN(Cc2nc(Cc3ccccc3)no2)C1 (stereo not drawn)	11.6%

SMILES	hERG current change (%, negative = inhibition) at 10uM
CC(C)(C)C(=O)OCCn1c(=O)c2cc3c(=O)n(CCOC(=O)C(C)(C)C)c(=O)c3cc2c1=O	25.5%
Cc1[nH]c(C)c(S(=O)(=O)N(Cc2ccccc2)C(C)C)c1C(=O)N1CCCC1	6.25%
O=C(CCNc1ccc(Br)cc1)c1cccc([N+](=O)[O-])c1	-4.24%
Cc1cccc(-n2c(Cc3cc(=O)[nH]c(=O)[nH]3)nnc2SCC(=O)N2CCc3ccccc32)c1	0.321%
Cn1ccnc1Sc1nc2ccccc2nc1NS(=O)(=O)c1ccccc1	9.78%
c1ccc(C(Cc2nc(-c3ccncc3)no2)c2ccccc2)cc1	17.1%
Cc1[nH]c(=O)c(C#N)c(C)c1CCC(=O)NCc1cccc(C(F)(F)F)c1	17.6%
O=C(CSc1nccc(=O)[nH]1)c1ccccc1Br	-3.44%
Cc1cc(-c2ccc(C)c(S(=O)(=O)NCC3CCN(Cc4ccc(F)cc4)CC3)c2)on1	-66.2%
CCOc1ccc(S(=O)(=O)NNC(=S)Nc2ccc(Br)cc2)cc1	5.35%
Cc1noc(C)c1C(=O)NCc1ccco1	0.0994%
O=C(c1cccc(Oc2c(Cl)cccc2[N+](=O)[O-])c1)N1CCCCC1	7.85%
CSCCC(NC(=O)c1ccccc1)C(=O)N1CCCCCCC1 (stereo not drawn)	-12.2%
O=C(C(Cc1ccccc1)n1cccc1)N1CCc2ccccc21 (stereo not drawn)	2.28%
CC1CCCCC12NC(=O)N(CC(=O)c1ccc3c(c1)OCO3)C2=O (stereo not drawn)	-17.9%
CCOc1cc(C2NC(=O)NC2=O)ccc1O (stereo not drawn)	17.4%
CCC(=O)OCC(=O)N=c1sccn1Cc1ccc(C)cc1	-13%
CN1C(=S)N(c2ccccc2)C(=O)/C1=C/c1ccco1	9.73%
O=C(C(c1ccccc1)c1ccccc1)N(Cc1ccco1)C1CCS(=O)(=O)C1 (stereo not drawn)	-6.5%
N#C/C(=C\c1cccnc1)c1nc2ccccc2[nH]1	-10.4%
Cc1ccccc1NC(=O)NCC1CCN(Cc2cccc(Cl)c2)CC1	-60%

SMILES	hERG current change (%, negative = inhibition) at 10uM
O=C1N/C(=N\N=C\c2ccco2)SC1Cc1ccccc1[N+](=O)[O-] (stereo not drawn)	5.12%
COc1ccc(/C=C/c2nnc(NC(=O)CSc3ccc(Cl)cc3)s2)cc1	-0.317%
Cc1cc(C)nc(N(C#N)Cc2ccc(Br)cc2)n1	4.33%
Cc1ccc(CN2CCN(C/C(Cl)=C/c3ccccc3)CC2CCO)o1 (stereo not drawn)	-45.2%
NNC(=S)NCc1ccco1	-1.18%
CC(C)[C@H](NC(=O)[C@H](Cc1ccccc1)n1c(=O)[nH]c2ccccc2c1=O)C(=O)N1CCC[C@@H]1C(=O)O	12.2%
Cc1ccc(/C=C2\SC(=S)N(CCC(=O)NNC(=O)c3ccccc3O)C2=O)cc1	5.74%
CCOc1ccc(S(=O)(=O)N2CCCCC2)cc1NC(=O)Cc1cccs1	-7.2%
CCN(CC)c1ccc(NC(=O)CN2C(=O)NC3(CCc4ccccc43)C2=O)cc1 (stereo not drawn)	8.12%
Cc1ccc(C(C(=O)NC(C)(C)C)N(CC2CCCO2)C(=O)c2csnn2)cc1 (stereo not drawn)	0.995%
N#Cc1ccc(N2Cc3ccccc3/C2=N/C(=O)Nc2ccc(Cl)cc2)cc1	-15.4%
c1ccc(OCCCn2ccnc2)cc1	16.3%
CCCN1CCN(S(=O)(=O)c2ccc3c(c2)NC(=O)C(C)C(=O)N3)CC1 (stereo not drawn)	1.15%
Cc1ccc(C(=O)Nc2ccc3c(c2)C(=O)N(C)C3=O)c(C)c1	3.54%
CCCCOc1ccc(N(CC(=O)NC(C)C)C(=O)CCC(=O)Nc2ccccn2)cc1	20.1%
O=C(NC(=S)Nc1ccccc1N1CCCC1)c1ccccc1[N+](=O)[O-]	12%
CC(NS(=O)(=O)/C=C/c1ccccc1)C(=O)O (stereo not drawn)	9.33%
COc1ccc(C(=O)N2CC=C(c3ccccc3)CC2)cc1S(=O)(=O)N1CCOCC1	-21.4%
Cc1ccccc1NC(=O)c1ccc(S(=O)(=O)C(F)F)cc1	-27.6%
COc1ccc(CC(=O)N2CCc3cc(OC)c(OC)cc3C2)cc1	-6.59%
N#CC(c1ccc(Cl)cc1)c1ccc(Cl)nn1 (stereo not drawn)	-0.526%
